Structures are written as SMILES. In all, about 150,000 compounds went through this assay and about 540 (0.36%) showed an effect of 50% or more. The list shows a part of the results.

The assay deals with Plasmodium falciparum. Briefly: Primary screen in NF54 nanoGlo assay, in single point, at 2uM, 72h; a lower Z score goes with more inhibition. In kind it is functional, Erythrocyte. The note with it: timepoint 72 hour.
Regarding `CCC(=O)N1CCCN(S(=O)(=O)C[C@H]2CCC[C@@H]2C)CC1`, the “% Inhibition” value is on record as -3% and the Z score was found to be 0.57.

`CC1=C(CCN2CC[C@H](NC(=O)c3cnccn3)[C@@H](O)C2)C(C)(C)CCC1`: the “% Inhibition” value is on record as -13% and the Z score came to 1.65.

For `CC(C)[C@H](Cn1nccn1)NS(=O)(=O)c1ccc(Cl)s1`, the “% Inhibition” value is -1% and the Z score came to 0.2.

Take `CC(CNC(=O)CCC1CCCO1)CN(C)C(=O)OC(C)(C)C` (centres undefined): the “% Inhibition” value is recorded as -3% and the Z score is given as 0.31.

Consider `O=C(C[C@@H]1COC2(C1)CN(S(=O)(=O)c1ccc3c(c1)CCC3)C2)NCc1ccncc1`, for which the “% Inhibition” value is 5% and the Z score was -0.84.

With `CCOC(=O)N1CCC(NC(=O)[C@H]2CCCN(S(=O)(=O)c3cccc4nonc34)C2)CC1`, the “% Inhibition” value was determined as 0% and the Z score is given as 0.07.

For `Cc1ccc(-c2nc(C#N)c(S(=O)(=O)N3CCN(CCO)CC3)o2)cc1`, the “% Inhibition” value came to 1% and the Z score was -0.08.

For `COC1(CNC(=O)N2CCC[C@H]2c2ccncc2)CCOCC1`, the “% Inhibition” value came to 5% and the Z score is on record as -0.59.

`O=C(c1cn(C2CCCCC2)nn1)N1CCC[C@H](OCc2ccccc2)C1`: the “% Inhibition” value is listed as -5% and the Z score was 0.75.

With `O=C1CN(CCn2cc(Cl)cn2)CCN1CCc1ccccc1`, the “% Inhibition” value is -7% and the Z score is recorded as 1.18.

For the compound `CN(C)C(=O)C1C[C@@H]2OCC[C@@H]2N1S(=O)(=O)CCC1CCCCC1` (some centres undefined), the “% Inhibition” value is recorded as 2% and the Z score is reported as -0.34.

Regarding `COc1cccc(NS(=O)(=O)c2c(C)[nH]c(C)c2-c2nc(C3CC3)no2)c1`, the “% Inhibition” value is recorded as -9% and the Z score worked out at 1.85.

Turning to `Cc1cccc(Cn2ccc3ccn(CC(=O)Nc4ccc(F)c(F)c4)c(=O)c32)c1`, the “% Inhibition” value is on record as -22% and the Z score was 2.56.

For the compound `CN(C)C(=O)c1ccc(CN2CC[C@@H]3COC(=O)N[C@H]3C2)[nH]1`, the “% Inhibition” value is recorded as -1% and the Z score came out at 0.16.

Consider `CCCc1occc1C(=O)N[C@@]12CCCC[C@@H]1NC(=O)C2`, for which the “% Inhibition” value is on record as -13% and the Z score is 1.5.

As for `CC(=O)n1ccc(C(=O)Nc2ccc(Cl)c(Cl)c2)n1`, the “% Inhibition” value was -12% and the Z score was 1.57.

Regarding `CCC1C(C)CCN1C(=O)c1cccc(NCc2cncs2)c1` (centres undefined), the “% Inhibition” value is listed as -20% and the Z score amounted to 2.19.

In the case of `Cc1nc(N2CCN(C(=O)C3CCCC3)CC2)c2cnn(-c3ccccc3Cl)c2n1`, the “% Inhibition” value is listed as -4% and the Z score amounted to 0.65.

Take `CC(C)(C)c1cnc(COCc2ncc[nH]2)o1`: the “% Inhibition” value is listed as -2% and the Z score is on record as 0.34.

In the case of `CC(C)n1cnc(C(=O)N2CCCNC(=O)[C@@H]2Cc2ccccc2)c1`, the “% Inhibition” value is on record as -13% and the Z score came out at 1.29.

`O=C(O)c1cccc(C(=O)Nc2cccc3[nH]ccc23)n1`: the “% Inhibition” value is reported as -7% and the Z score amounted to 1.12.

On to `C#CC(CC)(CC)NC(=O)c1c(C)noc1C`, for which the “% Inhibition” value is -15% and the Z score stood at 1.81.

Regarding `O=C(COc1cccc(-c2noc(-c3ccccc3F)n2)c1)Nc1cccc(Cl)c1`, the “% Inhibition” value came out at 1% and the Z score was -0.07.

Turning to `CCCN(CCC)S(=O)(=O)c1cc(-c2nc(C)c(C)s2)sc1C`, the “% Inhibition” value is 0% and the Z score was determined as 0.04.

Turning to `C#CCN(CC(F)(F)F)S(=O)(=O)c1cnn(C(C)C)c1`, the “% Inhibition” value is -8% and the Z score is on record as 0.85.

As for `C[C@@H]1CN(c2nccn3nnnc23)C[C@H](C)N1CC(F)(F)F`, the “% Inhibition” value is given as 2% and the Z score is recorded as -0.36.

On to `CN(C)c1ccnc(CNC(=O)C2CCCCC2)n1`, for which the “% Inhibition” value is reported as -12% and the Z score was determined as 1.83.

In the case of `COc1cccc(CS(=O)(=O)c2cccs2)n1`, the “% Inhibition” value is recorded as -7% and the Z score is 0.76.

As to `CC(NC(=O)Nc1ccccc1)C(c1cccs1)N1CCCC1` (centres undefined), the “% Inhibition” value was determined as 6% and the Z score was -0.89.

Take `Cc1cc(C)cc(N(C)CC(=O)N2CCNC2=O)c1`: the “% Inhibition” value is -3% and the Z score came to 0.51.

Regarding `COCCN1CC2(CCC1=O)CCN(C(=O)[C@@H](c1ccccc1)C(C)C)CC2`, the “% Inhibition” value is on record as -10% and the Z score was determined as 1.12.

With `C[C@@H](NS(=O)(=O)c1ccc2c(c1)OCCO2)c1nnc2n1CCCCC2`, the “% Inhibition” value is recorded as -41% and the Z score amounted to 4.8.

On to `Cc1ccc(S(=O)(=O)NC2CCC(C)CC2C)o1` (centres undefined), for which the “% Inhibition” value came to 34% and the Z score was -3.9.

Regarding `CCn1c(=O)ccc2c(OC)ncnc21`, the “% Inhibition” value is recorded as -11% and the Z score was 1.85.

Turning to `Cn1cccc1C(=O)N1CCC[C@@H]1CF`, the “% Inhibition” value is listed as -13% and the Z score is reported as 1.48.

For the compound `CN1CCCN(C(=O)C(=O)Nc2ccc(Cl)c(Cl)c2)CC1`, the “% Inhibition” value is listed as -1% and the Z score came out at 0.26.

For the compound `Cc1ccccc1C(=O)N1CCOC2(CCS(=O)(=O)CC2)C1`, the “% Inhibition” value is -27% and the Z score amounted to 2.86.

For `Cc1nc(CNC(=O)NC2CCCC2)cs1`, the “% Inhibition” value is on record as -10% and the Z score was 1.37.

Consider `C#C[C@@H]1COCCN1C(=O)c1ccncc1F`, for which the “% Inhibition” value is given as -6% and the Z score is 1.15.

As to `CCO[C@@H](C)c1nc(Cc2nc(CS(=O)(=O)c3ccccc3)no2)cs1`, the “% Inhibition” value is 0% and the Z score is given as 0.

In the case of `CCCn1ncnc1Cn1nc(C)c(C)c(C#N)c1=O`, the “% Inhibition” value amounted to 9% and the Z score is listed as -1.17.

With `Cc1ccc(F)c([C@@H](CC(=O)NCCN2CCOCC2)c2c[nH]c3ccc(Cl)cc23)c1`, the “% Inhibition” value stood at 11% and the Z score is -1.37.
